Results: the supplement of paper PMC9174493
Some of the results follow. Single values of this set are uncertain. Values with irradiation are relative to irradiated vehicle.

Key:
A549-Dual [1] = test: NF-kB reporter (SEAP) activity, viability-corrected, relative to vehicle (fold change vs vehicle); higher = more activation of STING-IRF / NF-kB immune response reporter
A549-Dual [2] = test: ISRE reporter (Lucia luciferase) activity, viability-corrected, relative to vehicle (fold change vs vehicle); higher = more activation of STING-IRF / NF-kB immune response reporter
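Throughout, for NF-kB reporter (SEAP) activity, viability-corrected, relative to vehicle: viability correction based on the alamar blue assay, with concentrations leaving 10% survival or less dropped.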

Row | Structure (SMILES) | NF-kB reporter (A549-Dual [1]; 0.1 µM, irradiation: 8 Gy/4 fr) | NF-kB reporter (A549-Dual [1]; 0.1 µM, irradiation: none) | NF-kB reporter (A549-Dual [1]; 0.3 µM, irradiation: 8 Gy/4 fr) | NF-kB reporter (A549-Dual [1]; 0.3 µM, irradiation: none) | NF-kB reporter (A549-Dual [1]; 1 µM, irradiation: 8 Gy/4 fr) | NF-kB reporter (A549-Dual [1]; 1 µM, irradiation: none) | NF-kB reporter (A549-Dual [1]; 3 µM, irradiation: 8 Gy/4 fr) | NF-kB reporter (A549-Dual [1]; 3 µM, irradiation: none) | NF-kB reporter (A549-Dual [1]; 10 µM, irradiation: 8 Gy/4 fr) | NF-kB reporter (A549-Dual [1]; 10 µM, irradiation: none) | ISRE reporter (A549-Dual [2]; 0.1 µM, irradiation: 8 Gy/4 fr) | ISRE reporter (A549-Dual [2]; 0.1 µM, irradiation: none) | ISRE reporter (A549-Dual [2]; 0.3 µM, irradiation: 8 Gy/4 fr) | ISRE reporter (A549-Dual [2]; 0.3 µM, irradiation: none) | ISRE reporter (A549-Dual [2]; 1 µM, irradiation: 8 Gy/4 fr) | ISRE reporter (A549-Dual [2]; 1 µM, irradiation: none) | ISRE reporter (A549-Dual [2]; 3 µM, irradiation: 8 Gy/4 fr) | ISRE reporter (A549-Dual [2]; 3 µM, irradiation: none) | ISRE reporter (A549-Dual [2]; 10 µM, irradiation: 8 Gy/4 fr) | ISRE reporter (A549-Dual [2]; 10 µM, irradiation: none)
1 | O=C(Nc1ccc(O)cc1)c1ccccc1O [Osalmid] | 1.15 | 1.43 | 1.17 | 1.63 | 1.46 | 1.05 | 1.34 | 1.15 | 1.24 | 1.23 | 0.983 | 1.03 | 0.9 | 1.01 | 0.761 | 0.78 | 0.792 | 0.917 | 0.654 | 0.933
2 | CN(C)C(=O)COC(=O)Cc1ccc(OC(=O)c2ccc(NC(=N)N)cc2)cc1.CS(=O)(=O)O [Camostat Mesilate] | 0.866 | 1.27 | 0.722 | 1.52 | 1.29 | 0.997 | 1.33 | 0.992 | 0.771 | 0.84 | 1.01 | 0.99 | 0.784 | 1.07 | 0.792 | 0.871 | 0.853 | 0.903 | 0.603 | 0.719
3 | C=C1CCC2C(C)(CO)C(O)CCC2(C)C1C/C=C1/C(=O)OCC1O (stereo not given) [Andrographolide] | 0.951 | 0.754 | 0.898 | 0.781 | 1.04 | 0.8 | 0.642 | 0.86 | 0.692 | 0.516 | 0.992 | 0.981 | 0.839 | 1.15 | 1 | 0.909 | 0.753 | 0.815 | 0.7 | 0.737
4 | OCC1OC(Oc2cc(O)cc(/C=C/c3ccc(O)cc3)c2)C(O)C(O)C1O (stereo not given) [Polydatin] | 1.37 | 2.71 | 1.56 | 2.51 | 1.62 | 1.5 | 1.97 | 1.56 | 1.75 | 0.881 | 1.23 | 2.34 | 1.17 | 1.95 | 1.35 | 1.29 | 1.09 | 1.19 | 1.41 | 1.1
5 | CCC(C)n1ncn(-c2ccc(N3CCN(c4ccc(OCC5COC(Cn6cncn6)(c6ccc(Cl)cc6Cl)O5)cc4)CC3)cc2)c1=O (stereo not given) [Itraconazole] | 0.985 | 1.03 | 0.804 | 0.92 | 0.928 | 0.924 | 0.815 | 1 | 0.919 | 0.902 | 0.903 | 1.34 | 0.806 | 0.957 | 0.844 | 1.01 | 0.867 | 0.789 | 0.863 | 0.854
6 | CC(Oc1cc(-c2cnn(C3CCNCC3)c2)cnc1N)c1c(Cl)ccc(F)c1Cl (stereo not given) | 1.07 | 0.939 | 1.39 | 0.946 | 1.21 | 1.06 | 0.962 | 1.1 | 0.658 | 0.729 | 1.11 | 1.05 | 1.56 | 1.52 | 1.34 | 3.08 | 0.929 | 3.26 | 0.564 | 0.853
